Some of the results follow. Repeats are few or missing, and single values can be far off.
How the values were obtained:
Test in all cases: cell count relative to DMSO control; melanoma cells; higher = more viable cells
Conditions in all cases: library dose: low library concentration; 72 h
MZ2-MEL = system: MZ2-MEL
MeWo = system: MeWo
RPMI7951 = system: RPMI7951
RVH-421 = system: RVH-421
SkMel28 = system: SkMel28
SkMel2 = system: SkMel2
SkMel30 = system: SkMel30
SkMel5 = system: SkMel5
UACC257 = system: UACC257
UACC62 = system: UACC62
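Also: cell number obtained by counting DAPI-stained nuclei in high-throughput microscope images with image analysis software, screen run in 1,536-well plates.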

SMILES	cell count (MZ2-MEL)	cell count (MeWo)	cell count (RPMI7951)	cell count (RVH-421)	cell count (SkMel28)	cell count (SkMel2)	cell count (SkMel30)	cell count (SkMel5)	cell count (UACC257)	cell count (UACC62)
Nc1ccn([C@@H]2O[C@H](CO)[C@@H](O)C2(F)F)c(=O)n1 [gemcitabine] + Cc1cc([N+](=O)[O-])ccc1NS(=O)(=O)c1cc(Cl)ccc1Cl [FH535] (first compound 0.0004 µM, partner dose 1 µM)	94.2%	96.3%	93.9%	102%	102%	94%	94.4%	103%	89.3%	109%
CC(=O)O[C@@]12CO[C@@H]1C[C@H](O)[C@@]1(C)C(=O)[C@H](O)C3=C(C)[C@@H](OC(=O)[C@H](O)[C@@H](NC(=O)OC(C)(C)C)c4ccccc4)C[C@@](O)([C@@H](OC(=O)c4ccccc4)[C@H]21)C3(C)C [Docetaxel] + COc1cc(Nc2ncc(F)c(Nc3ccc4c(n3)NC(=O)C(C)(C)O4)n2)cc(OC)c1OC [Tamatinib] (first compound 0.0001 µM, partner dose 0.4 µM)	37.3%	35.6%	22.4%	69.9%	37%	36.2%	29.1%	73.6%	34.5%	47.2%
Nc1ncn([C@H]2C[C@H](O)[C@@H](CO)O2)c(=O)n1 [decitabine] + Cc1cc([N+](=O)[O-])ccc1NS(=O)(=O)c1cc(Cl)ccc1Cl [FH535] (first compound 0.1 µM, partner dose 1 µM)	81.3%	89.2%	94.9%	86%	88.8%	97.4%	113%	82.3%	93.9%	67.6%
CC(=O)c1c(C)c2cnc(Nc3ccc(N4CCNCC4)cn3)nc2n(C2CCCC2)c1=O [palbociclib] + O=C(Nc1cccc(Cl)c1)Nc1ncc(CCNc2ncnc3ccsc23)s1 [SNS314] (first compound 0.04 µM, partner dose 0.0008 µM)	80.3%	77.6%	79.5%	103%	84.1%	72.3%	93.4%	73.1%	73.4%	83.1%
Nc1ncn([C@H]2C[C@H](O)[C@@H](CO)O2)c(=O)n1 [decitabine] + NC(=O)Nc1cc(-c2cccc(F)c2)sc1C(=O)N[C@H]1CCCNC1 [AZD7762] (first compound 0.1 µM, partner dose 0.02 µM)	93.1%	86.2%	83%	107%	96.1%	116%	149%	110%	121%	92.5%
CC(=O)O[C@@]12CO[C@@H]1C[C@H](O)[C@@]1(C)C(=O)[C@H](O)C3=C(C)[C@@H](OC(=O)[C@H](O)[C@@H](NC(=O)OC(C)(C)C)c4ccccc4)C[C@@](O)([C@@H](OC(=O)c4ccccc4)[C@H]21)C3(C)C [Docetaxel] + Cn1cc(/C=C2\C(=O)Nc3cccnc32)c2ccccc21 [GW441756] (first compound 0.0001 µM, partner dose 0.4 µM)	48%	34.8%	29%	91.1%	41.9%	27%	24.1%	76.4%	45.4%	39.9%
Nc1nc(F)nc2c1ncn2[C@@H]1O[C@H](CO)[C@@H](O)[C@@H]1O [fludarabine] + COC(=O)c1sccc1S(=O)(=O)Nc1ccc(Nc2ccccc2)cc1OC [GSK0660] (first compound 0.2 µM, partner dose 1 µM)	95.9%	29.3%	85.4%	103%	66%	4.87%	17.1%	58.2%	95.6%	96%
CC(=O)c1c(C)c2cnc(Nc3ccc(N4CCNCC4)cn3)nc2n(C2CCCC2)c1=O [palbociclib] + O=C1NC(=O)/C(=C/c2ccc(-c3ccc(F)cc3O)o2)S1 [AS252424] (first compound 0.04 µM, partner dose 1 µM)	78%	72.9%	84.3%	94.8%	80.4%	78.2%	59.2%	72.4%	63.7%	73.4%
Nc1ncn([C@H]2C[C@H](O)[C@@H](CO)O2)c(=O)n1 [decitabine] + CC1(C)NC(=O)N(c2ccc([N+](=O)[O-])c(C(F)(F)F)c2)C1=O [nilutamide] (first compound 0.1 µM, partner dose 1 µM)	87.1%	103%	86.6%	92.2%	96.4%	98.5%	91.4%	88%	89.8%	85.2%
CC(=O)c1c(C)c2cnc(Nc3ccc(N4CCNCC4)cn3)nc2n(C2CCCC2)c1=O [palbociclib] + C[C@@H]1CCN(C(=O)CC#N)C[C@@H]1N(C)c1ncnc2[nH]ccc12 [CP690550] (first compound 0.04 µM, partner dose 1 µM)	81.3%	71.4%	79.4%	78.5%	80.5%	82.2%	69.1%	63.4%	69.1%	78%

From the supplement of paper PMC4604168 (melanoma cell lines)
